Test results: ChEMBL document CHEMBL4888484, “Replenishing the malaria drug discovery pipeline: Screening and hit evaluation of the MMV Hit Generation Library 1 (HGL1) against asexual blood stage Plasmodium falciparum ,using a nano luciferase reporter read-out” (2022)
Out of some 150,000 compounds screened, about 540 (0.36%) showed an effect of 50% or more. The list shows a part of the results.

Test system: Plasmodium falciparum
Assay: Primary screen in NF54 nanoGlo assay, in single point, at 2uM, 72h; a lower Z score goes with more inhibition
Assay type: functional, Erythrocyte
Settings: timepoint 72 hour

SMILES | % Inhibition [%] | Z score
CN1CC[C@@H](C(=O)NCc2cccc(OCC(F)F)n2)S1(=O)=O | -7 | 1.1
Cc1c(Cl)c(C(F)F)nn1CC(=O)Nc1sc2c(c1C#N)CCC2 | -7 | 1.13
Cc1cccc(Cl)c1C(=O)NC[C@H]1CCCN(CC(=O)N2CCCC2)C1 | 0 | -0.1
Cc1ncc(CN(C)C(=O)CCc2c(C)[nH]c(=O)c(C#N)c2C)s1 | -5 | 0.43
O=C(C1CCCCC1)N1CCc2cnccc21 | -7 | 0.84
CCCn1ncc(C(=O)N[C@@H](CC)c2cn3cccnc3n2)c1C | -11 | 2.07
CN(C)c1ccccc1C(=O)NCc1cnn2cccnc12 | -1 | 0.22
COc1ccc(CCNC(=O)N2CCN(CC(C)(C)O)C[C@@H]2C)cc1F | -7 | 1.33
CCN(CCC(C)(C)C)CC(=O)Nc1ccc(NC(C)=O)cc1 | -3 | 0.52
COc1ccc(-c2ccc(N3CCCN(C(=O)CN(C(=O)c4ccc(Cl)cc4)C(C)C)CC3)nn2)cc1OC | -8 | 0.86
Cc1nn(C)cc1C(=O)N1CCN(c2ncccn2)[C@H]2CS(=O)(=O)C[C@H]21 | -4 | 0.51
COC(=O)c1ccc2c(c1)CC[C@H](NCc1ccncc1F)C(=O)N2 | -3 | 0.44
O=C(O)[C@@H]1CCCN1S(=O)(=O)c1cccc2cccc(Cl)c12 | -6 | 0.67
C(=C\c1nnc(-c2ccccc2)o1)/c1cc2ccccc2o1 | 0 | -0.03
O=C(CCCOc1ccccc1)N1CCC[C@H](c2nnc[nH]2)C1 | -13 | 1.78
CCn1cc(C(=O)OCCNC(=O)c2ccn[nH]2)cn1 | -5 | 0.75
Cc1nc2c3c(ccc2s1)CCCC3 | -34 | 4.05
c1ccc(CN2Cc3nc[nH]c3C[C@H]2c2nc(-c3ccc4ccccc4c3)no2)cc1 | 4 | -0.57
O=C(Nc1cc(Cl)ccc1NC1CC1)c1c[nH]c(=O)c(Cl)c1 | 2 | -0.25
CO[C@@H](C)c1nsc(N2CCC(NCc3ccccc3)CC2)n1 | -5 | 0.56
CC1(C)NC(=O)N(CCCN2CCOCC2C2CCCCC2O)C1=O (stereo not given) | -10 | 2.02
CC(C(=O)N1CCc2ccccc21)N1CCCC(c2ccn[nH]2)C1 (stereo not given) | -8 | 1.18

SMILES | % Inhibition [%] | Z score
Cc1ncc(CN2CCC(NC(=O)C(C)C3CCCC3)C(C)C2)s1 (stereo not given) | -11 | 2.14
O=C1CC(CC2CC2)=NN1[C@H]1CCCOC1 | -6 | 1.04
CCc1nn(C)c(NC(=O)[C@@H](N)C2CCCCC2)c1CC | -5 | 0.84
COCC(=O)N1CCc2cc(NC(=O)c3ccncn3)ccc21 | -6 | 0.69
CCN(c1nc2c(s1)c(C)nn2C)C1CCOCC1 | -23 | 2.28
Cc1c(NC(=O)CN2C(=O)N[C@]3(CCc4ccccc4C3)C2=O)c(=O)n(-c2ccccc2)n1C | -6 | 0.83
c1ccc(-c2nc(N(c3ccccc3)c3ccccc3)s[n+]2-c2ccccc2)cc1 | -3 | 0.31
CC(CC(C)C(c1ccccc1)c1ccccc1)NCCc1ccccc1 (stereo not given) | 6 | -0.96
c1cc2nccc(-c3nc([C@@H]4CCCO4)no3)c2cn1 | 0 | 0
CCc1nc(-c2ccc(O[C@H]3CCN(C(=O)c4ccc(F)cc4)C3)cc2)no1 | 33 | -3.7
CCCC(=O)N1CCC[C@H]1C(=O)OCc1nc(C)c(C)o1 | 0 | 0.05
O=C(c1cccnc1/C=C/C1CCCCC1)N1C[C@@H]2CC[C@H]1C2 | -13 | 1.28
Cc1ccc(-c2n[nH]cc2[C@@H]2NC(=O)c3cccnc3N2)o1 | -7 | 0.86
Cc1ccc(CN(C)C(=O)c2ccc3c(=O)n4c(nc3c2)CCCCCC4)c(C)c1 | 5 | -0.69
C=CCNC(=O)c1csc(-c2ccc(OCc3ccc(Cl)c(Cl)c3)c(OC)c2)n1 | 6 | -0.9
Cc1cccc(Cc2c(C)nc(C(C)C)nc2N2CCN(C(=O)c3cccs3)CC2)c1 | -14 | 1.38
O=C(c1ccco1)N(Cc1ccc(-c2ccccc2)cc1)Cc1ccc2ccccc2n1 | 5 | -0.59
O=C(N[C@H]1CCN(c2nccs2)C1)c1cccs1 | -8 | 1.59
FC(F)Cn1ccc(NCc2nc(C(F)(F)F)n3c2CCCC3)n1 | -11 | 1.49
NC1CCOC(C2CCN(C(=O)CC3CCCc4ccccc43)CC2)C1 (stereo not given) | -1 | 0.25
O=C(NCCc1nc2ccccc2[nH]1)[C@H]1CCS(=O)(=O)C1 | -3 | 0.32
CC(=O)N1CCC(CNc2ncnc3c2cnn3C(C)(C)C)CC1 | -4 | 0.43

SMILES | % Inhibition [%] | Z score
Cc1nc(CCCN2CCN(C(C)C)CC2)cs1 | -6 | 0.55
O=C1CCCc2c(OCc3nnnn3-c3ccccc3)cccc21 | -12 | 1.23
CC1=C(C(=O)N2CCC3(CCCCCC3)C2)OCCO1 | -8 | 1.17
COc1ccc(C(=O)N2CCC[C@@]3(C2)Nc2cccnc2N=C3NC2CCCC2)cn1 | 34 | -3.8
CCC[C@H](NC(=O)CN(c1ccc(C)cc1)S(=O)(=O)N(C)C)c1cccs1 | -24 | 2.16
Cc1ccc(C(=O)N(Cc2ccccc2)c2ccccc2)cn1 | -5 | 0.49
Cc1c(Cl)cccc1-n1nc(C)c2c(C(F)(F)F)cc(OCc3ccc4nonc4c3)nc21 | -1 | 0.12
Cc1cccc2nc(N(C)Cc3nnc4c(=O)n(C)ccn34)sc12 | -14 | 1.78
CN1CCC(n2nc(-c3ccco3)nc2Cn2ccccc2=O)CC1 | 10 | -1.33
COc1ccc(C(=O)Nc2ccc3n(c2=O)C[C@H]2C[C@@H]3CN(S(=O)(=O)c3ccc(C)cc3)C2)cc1 | -12 | 1.51
COc1ccc(-c2csc(N3CCC(c4ccccc4)CC3)n2)cc1 | -3 | 0.57
Cn1cc(-c2nccnc2CNC(=O)C(C)(C)C)cn1 | -14 | 1.55
CN1CCC[C@H](c2nnc3sc(-c4ccc(OCc5ccccc5)cc4)nn23)C1 | 33 | -0.74
CCOc1ccc(-c2nc(CN3CC[C@H](CN4CCOCC4)C3)co2)cc1 | -10 | 1.29
O=C(CCc1cc2n(n1)CCN(C(=O)Nc1cccc(F)c1)C2)NC1CC1 | -18 | 1.79
Cc1nnc(-c2ccccc2-c2cc(F)cc3cccnc23)o1 | -7 | 0.96
C[C@]1(C#N)CCCN(C(=O)Cc2ccsc2)C1 | -12 | 1.65
CCn1nc(CC(C)C)cc1C(=O)N1C[C@@H](CN2CCOCC2)[C@@H](CO)C1 | -8 | 1.26
CC[C@H](NC(=O)c1cncn1C)c1cnn(C)c1 | 0 | 0.07
Cc1c(O)nc(CCN(C)C(=O)CCc2cccc(Cl)c2)[nH]c1=O | -17 | 1.86
Fc1ccccc1CN(Cc1cnc2ccccn12)C1CCOCC1 | -4 | 0.47
CC(C)(O)Cn1nnc(Cc2cccc(Br)c2)n1 | -7 | 0.92

SMILES | % Inhibition [%] | Z score
CCc1noc(C)c1C(=O)N1CCO[C@H](c2nccs2)C1 | -10 | 1.31
O=C(CC1CCCC1)N1CC[C@@]2(CCCN(Cc3ccc(F)c(F)c3)C2=O)C1 | -3 | 0.46
CC(C)C1CCCC(NCc2nncn2C2CC2)CC1 (stereo not given) | -9 | 1.4
Cc1ccc(S(=O)(=O)N(OS(=O)(=O)c2ccccc2)c2ccccc2)cc1 | -16 | 1.78
CCCC(CCC)C(=O)Nc1cccc(Br)c1 | -44 | 5.14
Nc1c2c(-c3ccc(F)cc3F)nc(NC3CC3)nc2nn1-c1ccc(Cl)cc1 | -20 | 2.19
CO/C(=N/C(=O)c1cccc(F)c1)NCCN1CCCCC1 | -5 | 0.97
CC(C)CN(c1ncnc2c1cnn2C)C1CC1 | -8 | 1.26
COCC1(C)CN(C(=O)NCC(C)(C)c2ccc(C)cc2C)C1 | -6 | 1.14
C[C@@H](Cc1csc2ccccc12)NC(=O)c1ccc(Cl)s1 | -4 | 0.47
Cc1nc(C)c(C(=O)N(c2cnc3ccccc3c2)C(C)C)s1 | -16 | 1.64
CCc1ccc(CN2CCN(c3ccnc4nncn34)CC2)cc1 | -6 | 0.63
C=CCn1ccnc1-c1ccc(C)c(F)c1F | -1 | 0.17
Cc1cc(F)cc(C(=O)NCCOC(N)=O)c1 | -1 | 0.11
NS(=O)(=O)c1ccc(CCNC(=O)C2C3CCC(C3)N2C(=O)c2ccccc2)cc1 (stereo not given) | -8 | 1.42
Cn1cnnc1-c1cncc(NC(=O)c2ccc(Cl)cn2)c1 | -22 | 3.66
CC(C)(C)OC(=O)C1CCN(c2cc(N3CCCC3)ncn2)CC1 | -16 | 2.67
O=C(Cc1ccc(Cl)cc1)N[C@@H]1CC=CCC1 | 13 | -1.78
O=C(NCCc1ccccn1)C1Cc2cc(C(F)(F)F)ccc2N2CCN(C3CCCC3)CC12 (stereo not given) | -3 | 0.39
